Measurements: PubChem BioAssay AID485367 (National Center for Advancing Translational Sciences (NCATS), 2010)
In all, about 330,000 compounds went through this assay and about 560 (0.17%) were called active. The shares of active, inactive and inconclusive entries below differ from those in the screen. Calls follow the shape of the dose curve; as a rule, active = well fitted inhibition curve with a large enough effect; inconclusive = small, poorly fitted or top-dose-only effect, or effect the other way; inactive = flat fitted curve, though single readings scatter. Potencies of inconclusive entries are left out as doubtful fits.

target: ATP-dependent 6-phosphofructokinase (Trypanosoma brucei brucei) (UniProt O15648); assay: qHTS Assay to Find Inhibitors of T. brucei phosphofructokinase; also: nearly all actives have a fitted effect of over 60% in size; details: T. brucei PFK, ADP-Glo luminescence; series mostly up to 57.5 µM
Chain of UniProt O15648 (O15648 whole entry, looked up): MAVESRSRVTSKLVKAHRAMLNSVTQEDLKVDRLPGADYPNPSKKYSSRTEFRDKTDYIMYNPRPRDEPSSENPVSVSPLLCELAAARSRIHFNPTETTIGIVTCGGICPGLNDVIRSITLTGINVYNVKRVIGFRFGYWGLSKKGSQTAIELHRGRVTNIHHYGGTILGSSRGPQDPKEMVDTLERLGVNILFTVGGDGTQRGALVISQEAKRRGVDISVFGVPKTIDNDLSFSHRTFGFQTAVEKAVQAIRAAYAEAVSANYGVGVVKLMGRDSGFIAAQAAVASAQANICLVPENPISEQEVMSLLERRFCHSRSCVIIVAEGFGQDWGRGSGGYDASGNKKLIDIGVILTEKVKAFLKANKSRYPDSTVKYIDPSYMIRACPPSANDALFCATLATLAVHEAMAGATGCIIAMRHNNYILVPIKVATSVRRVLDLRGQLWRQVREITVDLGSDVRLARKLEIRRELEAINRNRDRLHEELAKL
Summary of the method: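 PFK 1.25 nM, F6P 0.5 mM, ATP 0.1 mM, 0.1 M TEA pH 8.0, 5 mM MgCl2, 0.01% Tween20, 0.1% BSA; 45 min RT. ADP-Glo readout. qHTS titration up to 57 uM; curves fitted, compounds curve-classed.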
Potency is read from the fitted curve at half-maximal effect; tags tell the direction and shape of the fitted curve.

SMILES | Potency
CN(Cc1ccccc1)C(=O)COC(=O)c1ccc(=O)n(Cc2ccccc2)n1 | inactive
COc1cc(SC)ccc1C(=O)NCCCn1ccnc1 | inactive
CCOC(=O)c1c(C)n(-c2ccc(C)cc2)c2ccc(OCC(O)CN3CCN(C)CC3)cc12 (stereo not given) | inactive
CCSc1nnc(NC(=O)C2CCCCC2)s1 | inactive
O=C(N/N=C/c1sc(=O)[nH]c1-[n+]1ccccc1)c1ccccc1[O-] | inconclusive [falling, single point]
Nc1cc([N+](=O)[O-])ccc1Nc1ccc(O)cc1 | inactive
O=C(O)c1cc2ccc3cccc4ccc(c1)c2c34 | inconclusive [activator, single point]
COc1ccc(CCNC(=O)CSc2nnc(CNc3ccc(Cl)cc3)o2)cc1OC | inconclusive [falling, single point]
O=C1CC(N2CCN(Cc3ccccc3)CC2)C(=O)N1 (stereo not given) | inactive
O=C(Cc1c(F)cccc1Cl)Nc1cccc(S(=O)(=O)NC2=NCCCCC2)c1 | inactive
Cc1[nH]c2ccccc2c1C(=O)C(=O)N1CCCc2ccccc21 | inactive
Nn1c(Cc2cccc3ccccc23)nnc1SCc1ccc(Cl)c(Cl)c1 | inconclusive [falling, single point]
O=C1Nc2ccccc2C12Nc1ccccc1S2 (stereo not given) | inconclusive [falling, single point]
Cc1cc(=O)[nH]c(SCC2(O)C3CC4CC(C3)CC2C4)n1 (stereo not given) | inconclusive [falling, single point]
Cn1nc(C(=O)Nc2cc(Cl)ccc2N2CCCC2)c2ccccc2c1=O | inconclusive [activator, single point]
O=C(CSC1=NS(=O)(=O)c2ccccc2N1)c1ccccc1 | inconclusive [falling, partial curve]
CCc1ccc(-n2c(=O)c3ccccc3n3c(=S)[nH]nc23)cc1 | inconclusive [falling, single point]
O=C1C=C(c2ccccc2)C(=O)N1Nc1ccccc1 | active: 23.9 µM
CCCn1c(=O)c(C(=O)NCCc2ccccc2)c(O)c2ccccc21 | inactive
Cc1nc(-c2cccc(N)c2)cs1 | inconclusive [falling, single point]
O=c1[nH]c(SCc2ccc(Cl)cc2)nc2ccsc12 | inactive
COc1ccc(CN2C(=O)c3cccnc3C2Nc2cc(Cl)c(OC)cc2OC)cc1 (stereo not given) | inconclusive [falling, single point]
COc1ccc(OC)c(C(=O)c2c(C)oc3cc([N+](=O)[O-])c(O)c([N+](=O)[O-])c23)c1 | inconclusive [falling, single point]
Cc1ccc(C(=O)Nc2cnc3ccccc3c2)cc1 | inactive
Cc1nn(CC(=O)NCCCN2CCN(Cc3ccccc3)CC2)c(=O)c2cc(-c3ccccc3)nn12 | inactive

SMILES | Potency
O=C(COC(=O)Cc1ccc(Cl)cc1)NCc1ccco1 | inconclusive [falling, partial curve]
CCCC(=O)N1CCN(c2ccc(NC(=O)c3ccc(Br)o3)cc2)CC1 | inconclusive [activator, single point]
O=C(CSc1ccc2nnc(-c3cccc(F)c3)n2n1)NCc1ccco1 | inconclusive [falling, single point]
O=C(/C=C/c1ccccc1Cl)NCCc1ccccc1 | inactive
O=C(CN1C(=O)c2ccccc2C1=O)NCCc1c[nH]c2ccc(Cl)cc12 | inconclusive [falling, partial curve]
CC(C)c1c(O)nc(SCc2ccc(F)cc2)[nH]c1=O | inconclusive [falling, single point]
Cc1sc2nc(SCC(=O)Nc3cccc(S(N)(=O)=O)c3)[nH]c(=O)c2c1C | inactive
CCC(=O)N1CCN(c2cc(C)ccc2C)CC1 | inconclusive [falling, single point]
COc1ccc2c(c1)c(C(C)=O)c(C)n2CCc1ccccc1 | inactive
O=C(Nc1nnc(C2CC2)s1)C1Cc2ccccc2CN1S(=O)(=O)c1cccs1 (stereo not given) | inactive
O=C(NCC1CCCO1)c1cc(NS(=O)(=O)c2cccs2)cc(NS(=O)(=O)c2cccs2)c1 (stereo not given) | inconclusive [falling, single point]
Cc1ccccc1OCC(O)Cn1c(SC(C)C)nc2c1c(=O)[nH]c(=O)n2C (stereo not given) | inactive
O=P(CCCCCCCCCP(=O)(c1ccccc1)c1ccccc1)(c1ccccc1)c1ccccc1 | inactive
Cn1c2ccccc2c2cc(C(=O)NNS(=O)(=O)c3ccc(F)cc3)sc21 | inconclusive [activator, single point]
O=C(Cc1ccc(Cl)c(Cl)c1)Nc1ccc(S(=O)(=O)Nc2ncccn2)cc1 | active: 2.39 µM
COc1cccc2c(=O)n(CC(=O)Nc3ccc(F)cc3)ccc12 | inactive
C/C(=N\Nc1ccc(C(=O)O)cc1)c1ccc(Br)cc1 | inconclusive [falling, partial curve]
Cn1c2ccccc2c2nnc(SCC(=O)NC3CC3)nc21 | inconclusive [falling, single point]
CCCCc1cc(=O)oc2cc(C)c(CN3CCCC3)c(O)c12 | inconclusive [falling, full curve, poor fit]
Cn1c(-c2ccccc2O)cc2ccccc21 | inactive
Cc1cccc(NC(=S)Nc2ccc(Cl)c(Cl)c2)c1 | active: 10.7 µM
S=C(c1ccc(-c2ccccc2)o1)N1CCCCC1 | inconclusive [falling, partial curve]
O=C(COC(=O)c1ccc(CO)cc1)c1ccc(S(=O)(=O)N2CCCCC2)cc1 | inconclusive [falling, single point]
Cc1cccc(N2C(=O)C3C(c4ccccc4)OC4(C(=O)c5ccccc5C4=O)C3C2=O)c1 (stereo not given) | inconclusive [falling, single point]
CN1C(=O)c2oc3ccccc3c(=O)c2C1c1ccncc1 (stereo not given) | inconclusive [falling, single point]
